Test results taken from the supplement of paper PMC3334620.
Whole data set: some 33,000 sequences, median “E-score (-0.5 to 0.5)” near -0.021, cut for the highest 2% near 0.32. This is one part of the list.

Molecular target: T1, Zap1 (UniProt P47043)
T1 sequence: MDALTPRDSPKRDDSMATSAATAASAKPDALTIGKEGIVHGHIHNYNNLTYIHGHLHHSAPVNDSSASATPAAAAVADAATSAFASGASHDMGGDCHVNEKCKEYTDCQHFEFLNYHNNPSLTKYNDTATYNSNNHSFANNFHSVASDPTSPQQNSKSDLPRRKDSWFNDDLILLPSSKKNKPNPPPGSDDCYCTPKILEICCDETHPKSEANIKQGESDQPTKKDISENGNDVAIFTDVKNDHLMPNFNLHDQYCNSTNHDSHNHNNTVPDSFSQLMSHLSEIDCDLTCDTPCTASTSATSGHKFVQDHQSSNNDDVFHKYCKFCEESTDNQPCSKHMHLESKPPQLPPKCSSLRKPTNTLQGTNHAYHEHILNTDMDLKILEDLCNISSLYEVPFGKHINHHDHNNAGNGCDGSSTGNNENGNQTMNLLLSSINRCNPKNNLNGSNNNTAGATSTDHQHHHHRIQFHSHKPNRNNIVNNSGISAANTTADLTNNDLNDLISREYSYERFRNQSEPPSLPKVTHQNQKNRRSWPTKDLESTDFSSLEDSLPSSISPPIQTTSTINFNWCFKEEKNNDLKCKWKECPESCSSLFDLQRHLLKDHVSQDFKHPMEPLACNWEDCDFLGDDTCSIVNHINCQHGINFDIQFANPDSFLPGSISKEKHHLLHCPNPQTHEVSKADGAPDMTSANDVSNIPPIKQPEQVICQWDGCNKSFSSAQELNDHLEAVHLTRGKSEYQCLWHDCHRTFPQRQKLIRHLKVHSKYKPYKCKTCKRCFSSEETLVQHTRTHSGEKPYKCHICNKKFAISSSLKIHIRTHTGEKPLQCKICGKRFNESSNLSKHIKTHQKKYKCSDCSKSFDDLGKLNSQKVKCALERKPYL
Experiment: PBM E-score (8-mer binding enrichment) (E-score (-0.5 to 0.5)); higher = stronger / more preferred TF binding; most listed sequences are background and not binding sites
Conditions: protein concentration: 200 nM; construct: GST-full length
In short: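 GST-tagged yeast TFs (full-length or DNA-binding domain) were made by PURExpress in vitro transcription/translation and applied at about 100-200 nM to universal all-10-mer Agilent arrays. The arrays were made double-stranded by primer extension, on fresh or once-stripped slides. Bound protein was detected with fluorescent anti-GST, and scans were normalised with masliner. Each ungapped eight-base word, pooled with its reverse complement, received an E-score (modified Wilcoxon-Mann-Whitney statistic) from the Universal PBM Analysis Suite.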

Sequence	PBM E-score
CCTACAGG	0.0192
CCAGCCCG	-0.165
TCTTTCCA	-0.0633
ATAACAAG	0.142
AAAGGTAA	0.361
TATGATCA	0.146
GATCCGAA	0.014
AGAGGTAA	0.298
ATGGAACA	-0.031
AGGGAAAC	-0.178
CCCTTAGC	0.0213
CGTTAAAC	0.21
CACTAAAA	0.121
ATTACGGA	0.126
GGAAAAGA	-0.0998
AGGATCTA	-0.358
GGCCGCAC	-0.106
GATGTAAA	-0.0511
TCGTAACA	0.0696
AATCCCGT	0.0467
GCCGCGCA	-0.332
ACTCAGGA	0.12
GCGGTAAC	0.32
AAGATCGG	-0.142
AAAACGTG	-0.101

Sequence	PBM E-score
GGCCGAAA	0.0877
CTCCTTGC	-0.154
AACGAAGA	0.047
CCTATGGC	-0.126
AAACGGTC	0.097
AGAATGGG	0.0885
CGTGGACA	0.0459
AACCGTTG	0.25
CGCATGCG	-0.0521
ACGGTCGA	-0.0848
ACAGGGCC	0.0475
CTACAGCC	-0.139
CTAGGAAC	0.0514
AAAACTGC	-0.047
AAAGCCGT	-0.0578
CTGAATGA	0.0581
ATCTTTTA	0.09
GCACGGGC	-0.249
ACGCGTCT	-0.267
GACGTCAA	0.02
GCAAGTGC	-0.209
ATAGAAGG	0.102
AGCCCCTG	-0.231
AACCCTAA	0.452
AGTGCCCG	-0.203

Sequence	PBM E-score
CTGCGCTC	-0.236
AACGTAAA	0.199
ATGATGTG	-0.0157
ATAGGTCC	0.116
CGTCAGAC	-0.11
AGATTTTC	-0.0514
CGTCCGAA	-0.0179
GTCTTTTA	-0.00522
AACGGCGC	-0.21
CACGGCAG	-0.00889
CACGAGAA	-0.0171
GACCTAGC	-0.0032
GCGGTTAA	0.356
CTCGTGAA	0.00434
CCATCGGA	-0.174
GCTTTTAC	-0.0332
GTGAACGA	-0.00586
AGAGGCCG	-0.144
ATATAAAA	0.227
CCGGCACA	-0.107
ACTTATCT	0.0441
ACGGTTTA	-0.00711
ATTGATGC	0.0558
GCATAACA	0.0518
CGATCGAG	-0.0245

Sequence	PBM E-score
GCATGGAC	-0.108
CTGAATCA	0.0173
CAGACCGG	-0.116
CGAGACAC	-0.0303
GTTGTTTA	0.164
AGGCCAAC	-0.0893
ACTCTAGA	0.0328
ATCTTGGA	0.00915
ACGAAGTC	-0.206
ACACTCAT	-0.0643
GCGGCCGC	0.0803
CCCTAATC	0.0726
ACGAAAGG	0.0805
CATGCCCA	-0.296
ATAAACGA	0.201
CAACGACG	-0.19
AGCGTGTG	-0.0655
ACCAGTCG	0.0704
AATTTACG	0.113
AAGTCGGC	-0.23
CAGAGAAA	0.0455
ATCGTGTC	-0.118
GCTCACAC	0.016
GGTACGAA	0.201
AGGCGAAT	-0.322

Sequence	PBM E-score
GAGATGCA	-0.213
ATGCTGGG	-0.126
ATACATGG	-0.131
CAATCCCA	-0.182
CGCTTGAA	0.143
ATCAGAGG	-0.0826
ACGTGAGG	-0.018
ATTAATGA	0.138
AAACAATC	0.145
AGGGGCGC	-0.101
AAGGAGCC	-0.294
AAACTTTC	0.0388
ATCTTTAA	0.206
ACTTATAT	0.26
ACAGGCGT	-0.324
AGGAGGAG	-0.279
CTTTGATA	0.106
CGGTGTTC	0.0412
CAAGATTA	-0.00834
CTTGTCTC	-0.00369
CCATGCTC	-0.174
CTCTGTGC	-0.164
CAAAAGAA	0.111
AAAGCCCC	-0.2
CAAAGCAG	0.00173

Sequence	PBM E-score
CTGGTTTA	-0.0412
CACCTAAC	-0.0198
TCTCGACA	-0.117
AGTACACA	0.0705
GCTTTCGA	-0.0324
CAACTGTA	0.0697
CCACTTCG	-0.0993
ATTGTTTC	0.195
CCCGAGGA	-0.141
ATGTCAGG	-0.0549
TCCCGTAA	0.184
CGACGCAG	-0.187
AGAGAAAG	-0.0958
GCTGAAGA	-0.0693
AACAGCTG	0.13
AACTGCAC	0.131
CAATCCGG	-0.0977
ATTGCTCA	-0.0105
CAGCTACC	-0.0054
ATTTGCTC	-0.169
AGATTGTG	0.0673
AAGACAAA	0.012
CAGCGGAC	0.0227
ATTACAAC	0.0539
ATACCTCA	0.223

Sequence	PBM E-score
TAAAGGTA	0.34
CTTTGATC	0.00855
CACTAAAG	0.159
CTGGATTC	-0.00494
ACTTCCTC	-0.0802
CAGCCCTG	-0.244
CAAACTAC	0.0989
AGCTGCCA	-0.301
GCTCCCAC	-0.0727
CGTTCCGC	0.0318
CGCAACAG	-0.0258
CCCACTTA	-0.0455
CCAGATCG	-0.119
ACATAGAA	-0.0681
ATTTTCAA	0.135
ATGTCGTG	-0.0761
AGTTATAA	0.193
CTAATTCA	-0.0193
CGTACAAG	-0.0243
CGCATGTA	-0.0451
AAGCTCGA	-0.0303
ACTGTTAC	-0.0312
CAGTGAAA	-0.00327
ATGTCTGA	-0.232
CATATTAA	0.277

Sequence	PBM E-score
ACCAAGCA	0.208
ACAGCCGG	0.0917
ACAGCACC	-0.146
ACCGCCTA	-5e-05
AGTTATGC	0.0469
CCATTTTC	0.119
GGTTTGGA	0.135
TAAGCACA	0.0783
GTGAGGGA	-0.0834
CGGGTCCC	-0.116
AATTCTGA	0.0239
GTCCTCAA	0.0163
ATGTGCTC	-0.0103
ATCCCATG	-0.0549
CAACGTCG	-0.0764
GACGCGGA	-0.0173
ATACACTC	0.0552
CTCAAGGC	0.0438
ATCCAGCA	-0.107
CCGCATAC	0.0877
GGTCAGCA	0.14
GCGTATAC	-0.00708
ATGGAGTA	-0.0173
CGTTGTAC	0.0582
AGGAGAAC	-0.0223

Sequence	PBM E-score
GGCAGAAA	0.181
CGCTAGTC	-0.294
GTCCTCAC	-0.0399
AAGCAATA	-0.141
ATAGGCCC	-0.00479
AACGGCTA	-0.0947
CTCGTCTA	-0.145
AAGTACAC	0.0551
CAAAAGGA	0.00165
CGCACATA	-0.261
CCAGGCCG	-0.0809
AGAGAGCT	-0.212
AGTTGGGG	-0.0889
ATTCAAGA	-0.105
GACGAACA	-0.026
ATGGGATA	-0.156
GAAAACCA	0.263
ATCGCATA	0.0205
TGACTCAA	-0.108
